Data on 88 molecules can be found in PMC4336329 (PLoS ONE, 2015).

Screen size: about 310,000 compounds; about 2,200 (0.71%) showed an effect of 50% or more. The effect is printed as a negative number. This is one part of the list.

human ether-à-go-go-related gene (hERG) potassium channel, sequence (Q12809 whole entry, looked up): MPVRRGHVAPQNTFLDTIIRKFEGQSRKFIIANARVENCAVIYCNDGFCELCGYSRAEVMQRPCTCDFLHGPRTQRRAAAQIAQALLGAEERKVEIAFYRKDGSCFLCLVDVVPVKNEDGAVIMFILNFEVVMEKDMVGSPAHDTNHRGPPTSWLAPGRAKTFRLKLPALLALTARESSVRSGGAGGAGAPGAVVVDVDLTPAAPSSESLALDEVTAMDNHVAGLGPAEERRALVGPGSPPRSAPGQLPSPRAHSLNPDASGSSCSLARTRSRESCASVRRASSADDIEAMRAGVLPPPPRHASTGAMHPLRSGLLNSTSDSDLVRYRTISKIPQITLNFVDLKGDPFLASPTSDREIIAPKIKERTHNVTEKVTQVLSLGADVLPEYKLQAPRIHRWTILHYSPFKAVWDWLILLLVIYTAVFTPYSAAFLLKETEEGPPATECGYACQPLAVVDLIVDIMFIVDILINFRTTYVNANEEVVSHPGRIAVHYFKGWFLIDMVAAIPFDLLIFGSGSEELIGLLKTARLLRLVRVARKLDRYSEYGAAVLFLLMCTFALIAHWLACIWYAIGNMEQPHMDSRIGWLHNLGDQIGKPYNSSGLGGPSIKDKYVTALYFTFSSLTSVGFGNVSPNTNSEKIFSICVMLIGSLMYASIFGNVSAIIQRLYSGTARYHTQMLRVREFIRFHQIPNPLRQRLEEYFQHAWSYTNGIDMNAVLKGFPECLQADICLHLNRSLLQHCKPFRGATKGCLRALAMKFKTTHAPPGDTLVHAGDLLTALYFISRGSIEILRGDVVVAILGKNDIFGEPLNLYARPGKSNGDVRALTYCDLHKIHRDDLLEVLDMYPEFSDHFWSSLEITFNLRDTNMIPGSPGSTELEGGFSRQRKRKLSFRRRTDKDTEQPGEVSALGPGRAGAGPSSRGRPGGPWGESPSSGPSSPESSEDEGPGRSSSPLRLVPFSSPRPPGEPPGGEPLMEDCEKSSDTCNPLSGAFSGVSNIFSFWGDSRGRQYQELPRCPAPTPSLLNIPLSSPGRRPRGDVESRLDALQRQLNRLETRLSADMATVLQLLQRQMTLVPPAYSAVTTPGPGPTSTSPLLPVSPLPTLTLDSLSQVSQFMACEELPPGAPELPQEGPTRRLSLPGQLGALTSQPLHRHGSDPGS

This assay concerns the target human ether-à-go-go-related gene (hERG) potassium channel (human, UniProt Q12809). Description: primary screen, population patch clamp on CHO cells stably expressing hERG.
Take `COC(CNC(=O)c1cc(Sc2nnc(C)s2)nc2ccccc12)OC`: the “hERG current change (%, negative = inhibition) at 1uM” value amounted to 3.39%.
`O=C(NCc1ccccc1)C1(c2cccc(F)c2)CCCC1`: the “hERG current change (%, negative = inhibition) at 1uM” value is reported as 6.16%.
In the case of `O=C1CN(S(=O)(=O)c2cc(Cl)ccc2Cl)CCN1` it was 9.56%; in that of `CCC(=O)Nc1nnc(S(=O)(=O)N(CC)c2ccc(OC)cc2)s1`, 23.9%; in that of `CCOc1ccccc1CNc1nc2ccccc2n1C`, 8.6%.
In the case of `COc1ccc(Oc2ccccc2/C=C/C(=O)O)cc1` it was 17.1%; in that of `O=C(CN1CCN(c2cccc(Cl)c2)CC1)Nc1nccs1`, -6.8%; in that of `CCOC(=O)CC(=O)CSc1nccc(-c2cccnc2)n1`, 10.2%.
In the case of `CC(NC(=O)c1cccs1)c1n[nH]c(=S)n1C` (stereo not shown) it was 12.1%; in that of `COc1ccccc1C(=O)NCCC(=O)NCCOc1ccccc1`, 11.5%; in that of `COc1ccc(/C=N/Nc2nc(N3CCCCC3)nc(N3CCCCC3)n2)cc1[N+](=O)[O-]`, 5.14%.
For `Cc1cc(Cl)ccc1OCCCC(=O)N/N=C/c1cccc([N+](=O)[O-])c1`, the “hERG current change (%, negative = inhibition) at 1uM” value was 17.2%.
In the case of `CCOc1ccc(S(=O)(=O)N2CCCC(C(=O)NCc3ccncc3)C2)cc1C` (stereo not shown) it was 18.3%; in that of `O=c1[nH]c(C2CCN(S(=O)(=O)c3ccccc3F)CC2)nc2c1nnn2Cc1ccc(OC(F)(F)F)cc1`, 16.7%; in that of `CC(C)(C)c1cc(NS(=O)(=O)c2ccc(Br)s2)no1`, 12.7%.
`O=C(NCC(=O)N1CCN(S(=O)(=O)c2ccccc2)CC1)c1ccc2ccccc2c1`: the “hERG current change (%, negative = inhibition) at 1uM” value is given as -3.38%.
As for `CCOC(=O)[C@H]1[C@H]2COc3ccccc3[C@@H]2N2C(=O)c3cc(F)c(F)cc3NC(=O)[C@@]12C`, the “hERG current change (%, negative = inhibition) at 1uM” value is reported as 7.08%.
For `Cn1cccc1/C=N/NC(=O)Cc1cccc2ccccc12`, the “hERG current change (%, negative = inhibition) at 1uM” value is 2.03%.
As to `COc1ccccc1NC(=O)CN1CCC(n2c(C)nc3cc(F)ccc32)CC1`, the “hERG current change (%, negative = inhibition) at 1uM” value is reported as -2.23%.
With `CNC(=O)C1CC(=O)N(c2ccc(C)cc2)C1` (stereo not shown) the figure was -0.0571%; with `COC(=O)C(c1ccccc1)N(Cc1cccc(CN(C(C(=O)OC)c2ccccc2)S(C)(=O)=O)c1)S(C)(=O)=O` (stereo not shown), 5.6%; with `O=C(c1cc(-c2ccco2)on1)N1CCN(C(c2ccccc2)c2ccccc2)CC1`, 0.285%.
With `COc1ccc(NC(=S)N2CCN(Cc3ccccc3)CC2)cc1` the figure was 13.7%; with `O=S(=O)(c1cccc(Cl)c1Cl)N1CCCCC1`, 5.43%.
Consider `CCOC(=O)C(NC(=O)CC)(Nc1ccc(S(N)(=O)=O)cc1)C(F)(F)F` (stereo not shown), for which the “hERG current change (%, negative = inhibition) at 1uM” value is 5%.
In the case of `COc1ccc(C(C)(C)NC(=O)C2CCC(=O)N(CCCN3CCCC3=O)C2)cc1` (stereo not shown) it was 10.8%; in that of `Cl.OC(COc1ccc(Cl)cc1)CN1CCN(c2ccccc2)CC1` (stereo not shown), 0.0675%.
With `CCCCCC/C=N/Nc1nnc(Cc2ccc(OC)c(OC)c2)c(=O)[nH]1` the figure was 11.3%.
With `COc1cccc(NC(=O)c2oc3ccccc3c2NC(=O)C2CC2)c1` the figure was 6.84%; with `CSCCC(NC(=O)C12CC3CC(CC(C3)C1)C2)C(=O)OCC(=O)c1ccc(Cl)cc1` (stereo not shown), 4.99%; with `CCOc1cc(S(=O)(=O)n2cc(-c3ccc(F)cc3)c(N)n2)cc(OCC)c1OCC`, 18.2%.
As for `CCCCCCN1C(=O)C(O)=C(C(C)=O)C1c1ccc(Cl)cc1` (stereo not shown), the “hERG current change (%, negative = inhibition) at 1uM” value is reported as -1.58%.
In the case of `C=CCn1nnnc1SCC(=O)Nc1cccc(C(F)(F)F)c1` it was 5.64%.
With `COc1ccc(OC)c(NS(=O)(=O)c2ccc(SC)cc2)c1` the figure was -0.314%; with `N/C(=N\c1nc2ccccc2o1)NC(=O)c1ccccc1NC(=O)c1ccccc1`, 12.3%.
In the case of `C=CCNC(=O)C1CC(=O)N(c2ccc(OCC(=O)Nc3ccc(Cl)c(C(F)(F)F)c3)cc2)C1` (stereo not shown) it was 6.37%; in that of `CCCCn1c(N)c(N(CC(C)C)C(=O)c2ccc(OCc3c(C)noc3C)cc2)c(=O)[nH]c1=O`, 7.88%.
For the molecule `CC1CCN(CC(=O)N2c3ccccc3CCc3ccccc32)CC1`, the “hERG current change (%, negative = inhibition) at 1uM” value is given as 12%.
In the case of `CSc1nsc(SC)c1CO` it was 13.6%; in that of `O=C(NCc1ccc2c(c1)OCO2)C1CCCN(C(=O)c2ccc(Cl)cc2)C1` (stereo not shown), -4.22%; in that of `COc1ccc(C)cc1Nc1ccc(C(=O)O)cc1[N+](=O)[O-]`, 8.19%.
In the case of `O=C1COc2ccc(C(=O)COC(=O)Cc3ccc(F)cc3)cc2N1` it was -8.79%; in that of `O=C(NCc1ccccc1F)C1CCN(S(=O)(=O)c2ccccc2)CC1`, -0.959%.
In the case of `COc1ccc(Cc2nc3ccc(C(=O)N4CCCC4)cc3o2)cc1OC` it was 16.3%; in that of `Cc1ccc(C)c(NC(=O)CSc2nc(C)cs2)c1`, 7.55%; in that of `CCN(CC)c1ccc(C=NCCNS(=O)(=O)c2ccc(C)cc2)cc1`, 21.8%.
As to `COc1ccccc1C(=O)NCCC(=O)N1CC(=O)Nc2ccccc21`, the “hERG current change (%, negative = inhibition) at 1uM” value was 14.1%.
With `Fc1ccc(NC(=S)Nc2cc(-c3ccccc3)[nH]n2)cc1Cl` the figure was 9.99%; with `CC(=O)Nc1sc(N/N=C/c2ccc(O)cc2)nc1-c1ccc(C)cc1`, -0.437%.
In the case of `O=C(NCc1ccccn1)C(=O)Nc1ccccc1` it was 4.81%; in that of `Cc1ccc(S(=O)(=O)N(Cc2c(F)cccc2Cl)C(=O)N2CCN(C)CC2)cc1`, 3.55%.
In the case of `Cc1ccccc1NC(=O)c1cc2c(C)nc3ccccc3c2o1` it was 17.2%; in that of `O=C(NCC(c1ccco1)N1CCN(c2ccccc2F)CC1)c1ccco1` (stereo not shown), 3.23%.
Turning to `Cc1ccc(S(=O)(=O)NNC(=O)c2cnn(-c3ccccc3)c2-n2cccc2)cc1`, the “hERG current change (%, negative = inhibition) at 1uM” value is -2.33%.
As to `COc1ccc(/C=C2/C(=O)ON=C2C)cc1Br`, the “hERG current change (%, negative = inhibition) at 1uM” value is listed as 14.1%.
In the case of `CC(=O)Nc1ccc(NC(=O)c2cc(S(=O)(=O)N3CCCCC3)ccc2C)cc1` it was 7.9%; in that of `COC(=O)C1Sc2[nH]c(=O)sc2C2c3ccccc3OC(=O)C12` (stereo not shown), -18.8%.
With `CCOC(=O)C(=O)N1CCN(c2cc3c(cc2[N+](=O)[O-])n(C)c(=O)n3C)CC1` the figure was -2.04%; with `Cc1cc(OCC(=O)Nc2c(C)n(C)n(-c3ccccc3)c2=O)ccc1[N+](=O)[O-]`, 7.71%; with `Cc1nc2ccc(C(=O)NCc3ccc4c(c3)OCO4)cc2s1`, 11%.
As for `CNC(=O)CCn1nc(-c2ccc(Cl)cc2)c2ccccc2c1=O`, the “hERG current change (%, negative = inhibition) at 1uM” value is given as 6.83%.
In the case of `COc1ccccc1N1CCN(/N=C/c2cccc(Cl)c2)CC1` it was 9.71%; in that of `CN1CCN(C(=O)CCN2C(=O)/C(=C\c3ccccc3F)SC2=S)CC1`, 9.46%.
In the case of `c1ccc(-n2c(SCc3ccncc3)nnc2-c2ccco2)cc1` it was -3.95%; in that of `COc1ccc(S(=O)(=O)NNC(=O)c2cc3cc4ccccc4nc3s2)cc1`, 7.6%; in that of `CC(C)[C@H](N)c1cn([C@@H](CO)C(=O)N2CCNCC2)nn1`, 7.02%.
In the case of `CCOC(=O)COc1ccc(Cl)cc1C1NC(=O)NC(C)=C1C(C)=O` (stereo not shown) it was 16.7%.
On to `COC(=O)C1=C(C)NC2=C(C(=O)CC(C)(C)C2)C1c1ccccn1` (stereo not shown), for which the “hERG current change (%, negative = inhibition) at 1uM” value amounted to 2.31%.
With `Cc1ccc([N+](=O)[O-])cc1NC(=O)CCc1ccccc1` the figure was 8.96%; with `CC(C)(C)c1ccc(S(=O)(=O)N2CCc3nc4ccccc4c(C(=O)O)c3C2)cc1`, 12%.
For `CCCCN(CC)Cc1ccc(CNC(=O)Nc2ccccc2)o1`, the “hERG current change (%, negative = inhibition) at 1uM” value is listed as -2.8%.
Consider `COC(=O)c1cc(NS(=O)(=O)c2ccc(N3CCOCC3)c([N+](=O)[O-])c2)cc(C(=O)OC)c1`, for which the “hERG current change (%, negative = inhibition) at 1uM” value was 9.53%.
With `CCN(CC)C(=O)NC1CC(=O)N(c2ccc(OC)cc2)C1` (stereo not shown) the figure was 16.7%; with `COc1cccc(NC(=O)Cc2ccc(C)cc2)c1`, 7.4%; with `O=C(CN(CCCN1CCOCC1)C(=O)Cn1nnc(-c2ccc(F)cc2)n1)NC1CCCCC1`, -1.74%.
With `O=C(O)c1ccc(N/N=C/c2ccc(-c3ccc(Cl)cc3Cl)o2)cc1` the figure was 11.6%; with `Cc1ccc(C)c(S(=O)(=O)Nc2ccc(C(=O)NCCCN3CCOCC3)cc2)c1`, 8.06%.
With `CCCN(CCC)C(=O)C1CC(=O)OC12CCCCC2` (stereo not shown) the figure was 6.38%; with `CCOC(=O)C1=C(c2ccccc2)NC(=S)NC1C` (stereo not shown), 9.21%.
As to `COc1cc(N)ccc1NC(=O)c1cc2ccccc2o1`, the “hERG current change (%, negative = inhibition) at 1uM” value came out at 8.77%.
With `CCc1ccc2c(CC(=O)NNC(=O)c3ccncc3)coc2c1`, the “hERG current change (%, negative = inhibition) at 1uM” value stood at 11.6%.
In the case of `CNC(=O)CSc1cn(CC(=O)N(C(C)C)C(C)C)c2ccccc12` it was 9.71%; in that of `COC(=O)[C@@H](NC(=O)Nc1ccc2c(c1)OCCO2)C(C)C`, 6.37%.
With `Cc1ccc(-c2cc(C(=O)NCCCN3CCCC3)c3ccccc3n2)cc1C` the figure was -2.04%; with `CNC(=O)N(C)c1nnc(C(C)(C)C)s1`, 11.2%.
Take `COc1ccc(CCNC(=O)C(=O)NCC2OCCN2S(=O)(=O)c2ccc(C)cc2)cc1` (stereo not shown): the “hERG current change (%, negative = inhibition) at 1uM” value worked out at 7.8%.
With `CC(C)n1c(N2CCN(C(=O)Nc3ccc(F)cc3F)CC2)nc2ccccc21` the figure was -8.78%; with `O=C(COc1ccc2c(c1)CCC2)Nc1ccccn1`, 1.17%.
